The record followed here is paper PMC6919601, “Identification of Plasmodium dipeptidyl aminopeptidase allosteric inhibitors by high throughput screening” (PLoS ONE, 2019).

Values joined by “and” are separate entries in the source; they are usually repeats but may differ in a detail not shown here. Equal entries are not always repeated. In all, about 110,000 compounds went through this assay and about 230 (0.21%) showed an effect of 50% or more. The list shows a part of the results.
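Further: 30 min substrate incubation versus DMSO and 10 µM JCP410 controls.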

Sequence of DPAP1 (Q8IIJ9 whole entry, looked up): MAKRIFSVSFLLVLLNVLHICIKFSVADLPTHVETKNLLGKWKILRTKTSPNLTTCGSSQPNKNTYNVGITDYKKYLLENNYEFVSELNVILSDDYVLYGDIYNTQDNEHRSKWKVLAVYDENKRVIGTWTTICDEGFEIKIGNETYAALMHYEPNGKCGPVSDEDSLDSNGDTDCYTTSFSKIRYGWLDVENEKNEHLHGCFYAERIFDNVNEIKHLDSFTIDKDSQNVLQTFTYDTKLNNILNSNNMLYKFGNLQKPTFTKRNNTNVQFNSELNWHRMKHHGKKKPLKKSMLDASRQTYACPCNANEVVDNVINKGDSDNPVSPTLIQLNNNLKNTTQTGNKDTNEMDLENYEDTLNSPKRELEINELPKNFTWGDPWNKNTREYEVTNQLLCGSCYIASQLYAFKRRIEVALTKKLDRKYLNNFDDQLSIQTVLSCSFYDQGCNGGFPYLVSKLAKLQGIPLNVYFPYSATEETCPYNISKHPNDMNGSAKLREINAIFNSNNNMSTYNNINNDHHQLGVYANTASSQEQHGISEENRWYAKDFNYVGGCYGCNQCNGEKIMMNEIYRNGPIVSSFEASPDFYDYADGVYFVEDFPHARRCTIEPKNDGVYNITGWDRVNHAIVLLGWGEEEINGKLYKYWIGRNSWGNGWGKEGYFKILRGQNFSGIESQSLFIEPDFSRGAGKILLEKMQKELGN

The experiment addresses DPAP1 (Plasmodium falciparum, UniProt Q8IIJ9). The experiment in a line: primary screen, percent inhibition; read by cleavage of a fluorogenic dipeptide substrate; higher = more effect of the substance. On the set-up: species or system P. falciparum D10 trophozoite lysates; single well.
Consider `COc1ccc(C(=O)Nc2nn3c(-c4ccco4)nnc3s2)cc1`, for which the “% Inhibition @ 10 uM” value is recorded as 0.00665%.

Take `O=C(CN1CCOCC1)N(C1CCCCC1)C1CCCCC1`: the “% Inhibition @ 10 uM” value is -0.999% and 0.565%.

Regarding `CC(C)C(=O)N1CCN(c2ccc(NC(=O)Cc3ccccc3)cc2)CC1`, the “% Inhibition @ 10 uM” value is listed as -5.14%.

Turning to `O=C(CCNS(=O)(=O)c1ccc2nc(O)ccc2c1)NCc1ccc(Cl)cc1`, the “% Inhibition @ 10 uM” value was -4.63%.

In the case of `O=C(NCCCN1CCN(Cc2ccccc2)CC1)c1nnc(Cc2ccc(Cl)cc2Cl)o1`, the “% Inhibition @ 10 uM” value was determined as 9.59%.

Take `Cc1nn(C(=O)CCC(=O)N2CC(C)CC(C)C2)c2ccccc12` (stereo not shown): the “% Inhibition @ 10 uM” value was 5.39%.

As to `N#CCNC(=O)[C@H](CC1CCCCC1)NC(=O)c1ccc(F)c(F)c1`, the “% Inhibition @ 10 uM” value was -3.49%.

Regarding `N#C/C(=C\c1c(Oc2ccc(Cl)cc2)nc2ccccn2c1=O)C(=O)NCC1CCCO1` (stereo not shown), the “% Inhibition @ 10 uM” value was -4%.

For `N#C/C(=C/c1ccc(F)cc1)c1nc(-c2ccccc2)cs1`, the “% Inhibition @ 10 uM” value was determined as 3.06%.

`CC(=O)NC1=NN(C(C)=O)C(C)(c2cccc(Br)c2)S1` (stereo not shown): the “% Inhibition @ 10 uM” value is 1.37%.

Consider `COc1ccc(/C=C2\S/C(=N/c3cccc(C(=O)O)c3)N(C)C2=O)cc1O`, for which the “% Inhibition @ 10 uM” value was found to be 6.98%.

On to `c1ccc(-c2ccc(-n3cnc4ccccc43)cc2)cc1`, for which the “% Inhibition @ 10 uM” value was -6.88%.

As to `COc1ccc(C(=O)c2sc3nc(C)c(C(=O)Nc4ccccc4)c(C)c3c2N)cc1`, the “% Inhibition @ 10 uM” value is -0.366%.

Regarding `COc1ccc(-c2nnc3n(CCc4ccccc4)c(=O)c4ccccc4n23)c(O)c1`, the “% Inhibition @ 10 uM” value was -3.51%.

In the case of `CC(C)C(NS(=O)(=O)c1cccc2nsnc12)C(=O)NCc1ccccc1Cl` (stereo not shown), the “% Inhibition @ 10 uM” value is -4.1%.

Regarding `O=C(CN1CCOCC1)Nc1sc2c(c1C(=O)Nc1ccc(Br)cc1)CCCCC2`, the “% Inhibition @ 10 uM” value was 1.49%.

Regarding `CCN(CC)CC(O)COc1ccc(C23CC4CC(CC(C4)C2)C3)cc1` (stereo not shown), the “% Inhibition @ 10 uM” value is reported as -2.55%.

Regarding `CCCS(=O)(=O)N1CCC(C(=O)NC)CC1`, the “% Inhibition @ 10 uM” value turned out to be 3.24%.

Turning to `CC(=O)Nc1cc(-c2cccc(Br)c2)nn1-c1ccccc1`, the “% Inhibition @ 10 uM” value is recorded as -2.39%.

`CCN1CCN(C(C)Cc2ccc(F)cc2)CC1` (stereo not shown): the “% Inhibition @ 10 uM” value came to 0.0792%.

For the compound `Cc1cc(C(=O)NCCC(C)C)c2c(C)nn(-c3ccccc3Cl)c2n1`, the “% Inhibition @ 10 uM” value was 0.44%.

For the compound `Oc1cccc(CN2CCN(c3cccc(Cl)c3)CC2)c1`, the “% Inhibition @ 10 uM” value is recorded as -0.0404%.

As for `COc1ccc(/C=c2\sc3n(c2=O)CN(c2ccc4c(c2)OCO4)CN=3)cc1OC`, the “% Inhibition @ 10 uM” value was found to be 1.67%.

With `CCOC(=O)N1CCC(NCc2c(C(=O)O)n(CC)c3ccccc23)CC1`, the “% Inhibition @ 10 uM” value is listed as -5.05%.

Turning to `CCOC(=O)N1CCN(C(=O)CSC2=NN3CCCC(=O)N=C3S2)CC1`, the “% Inhibition @ 10 uM” value is reported as -1.14%.

As to `COc1ccc(/C=N/N=C(N)N)cc1OC`, the “% Inhibition @ 10 uM” value is -1.03%.

On to `O=[N+]([O-])c1ccc(-n2nc3ccc4ccccc4c3n2)cc1`, for which the “% Inhibition @ 10 uM” value is recorded as 3.06%.

Take `CCOCCCNC(=O)c1ccc2[nH]c(C)c(C)c2c1`: the “% Inhibition @ 10 uM” value was -0.127%.

As for `CCCCC(=O)Nc1ccc2c(c1)oc1ccccc12`, the “% Inhibition @ 10 uM” value was -4.57%.

Take `CCOc1cc2c(cc1/C=C1/NC(=O)N(c3cccc(Cl)c3)C1=O)OCO2`: the “% Inhibition @ 10 uM” value is -4.15%.

Consider `O=C(O)c1cccc(NS(=O)(=O)c2ccc(Cl)c(C(=O)O)c2)c1`, for which the “% Inhibition @ 10 uM” value was -3.55%.

Consider `OCC1CCCCN1Cc1cccc(Cl)c1` (stereo not shown), for which the “% Inhibition @ 10 uM” value is given as -2.36%.

`O=C(Nc1ccccc1Cl)NC1CCCCC1`: the “% Inhibition @ 10 uM” value was determined as 3%.

Regarding `N#CC1=C(N)Oc2cc(O)c(Cl)cc2C1c1ccncc1` (stereo not shown), the “% Inhibition @ 10 uM” value amounted to 2.46%.

Regarding `CC(C)NC(=O)c1ccc2nc(N3CCCCC3)sc2c1`, the “% Inhibition @ 10 uM” value worked out at 2.65%.

`O=C(O)c1ccccc1SCCc1ccccn1`: the “% Inhibition @ 10 uM” value was determined as 4.22%.

In the case of `Clc1ccc2c(c1)CC(NCCCN1CCOCC1)c1ccccc1S2` (stereo not shown), the “% Inhibition @ 10 uM” value is -11.2%.

With `COc1ccc(C(CC(=O)O)NS(=O)(=O)c2cccc3nsnc23)cc1` (stereo not shown), the “% Inhibition @ 10 uM” value is on record as -1.24%.

In the case of `Brc1ccccc1OCCN1CCCCC1`, the “% Inhibition @ 10 uM” value is given as -0.0953%.

Turning to `CCO/C(O)=C/C1=Nc2ccccc2NC(=O)C1`, the “% Inhibition @ 10 uM” value is reported as 1.74%.

Consider `Cc1ccc(CNC(=O)c2nnc(-c3ccc4c(c3)OCO4)o2)cc1`, for which the “% Inhibition @ 10 uM” value was -1.97%.

For the compound `Cc1cccc(-n2nnnc2C2(/N=C/c3ccccc3)CCCCC2)c1`, the “% Inhibition @ 10 uM” value is -1.68%.

`COCCNC(=O)C1c2ccccc2C(=O)N2CCc3ccccc3C12` (stereo not shown): the “% Inhibition @ 10 uM” value is -5.77%.

`O=C(CCn1c(=O)c2cccn2c2cccnc21)NCc1cccc(Cl)c1`: the “% Inhibition @ 10 uM” value was -6.67%.

Consider `CC[C@H](NC(=O)[C@H](CC1(C)CCCCC1)/N=C(\C)NS(=O)(=O)c1cccnc1)C(=O)c1nc(-c2ccccc2)no1`, for which the “% Inhibition @ 10 uM” value is recorded as -1.5%.

In the case of `C=CC/N=C/c1c(NCC=C)nc2c(C)cccn2c1=O`, the “% Inhibition @ 10 uM” value is listed as -3.75%.

For `Cc1nc2c(-c3ccc(F)cc3)c(C)nn2c(C)c1CCC(=O)NC(C)c1cccs1` (stereo not shown), the “% Inhibition @ 10 uM” value is 6.1%.

`N#Cc1c(N)nc(SCC(=O)c2ccc(Cl)cc2)c(C#N)c1-c1ccco1`: the “% Inhibition @ 10 uM” value is -1.97%.

For the compound `COc1cc(NS(=O)(=O)c2ccc(NC(=S)NC(=O)/C=C/c3ccccc3)cc2)nc(OC)n1`, the “% Inhibition @ 10 uM” value is on record as 9.31%.

Consider `CCC(=O)n1cc(/C=C2\S/C(=N\C)N(C)C2=O)c(-c2ccccc2)n1`, for which the “% Inhibition @ 10 uM” value came out at 0.685%.

Regarding `CC(=O)c1c(C)[nH]c(C(=O)NCCc2ccc(Cl)cc2)c1C`, the “% Inhibition @ 10 uM” value is -8.06%.

`COc1ccc2c(C)cc(=O)oc2c1C(C)=O`: the “% Inhibition @ 10 uM” value is listed as -7.86%.

Turning to `CCOC(=O)N1CCC(c2cc(O)n3nc(-c4ccccc4)cc3n2)CC1`, the “% Inhibition @ 10 uM” value was -2.83%.

Regarding `O=C(COc1ccc(Cl)cc1Cl)N1CCCCC1`, the “% Inhibition @ 10 uM” value is reported as -4.94%.

As for `COC(=O)c1cc(S(=O)(=O)NCCCc2ccccc2)cn1C`, the “% Inhibition @ 10 uM” value is recorded as -2.84%.

Take `COc1ccc(N(CC(N)=O)S(=O)(=O)c2ccccc2)cc1OC`: the “% Inhibition @ 10 uM” value is on record as 0.408%.

Turning to `CCN(CC)CCN(C)C(=O)C(O)(c1ccccc1)c1ccccc1`, the “% Inhibition @ 10 uM” value was determined as 0.131%.

On to `COc1cc(NC(=O)C(C)C)ccc1NC(=O)C(C)C`, for which the “% Inhibition @ 10 uM” value is reported as 1.72%.

For `CCc1ccc(C(=O)C2CCCCC2)cc1`, the “% Inhibition @ 10 uM” value was found to be 2.8%.

Turning to `O=c1c2cccc3c(Br)ccc(c32)c2nc3ccccc3n12`, the “% Inhibition @ 10 uM” value is -4.5%.

As to `CCCNC(=O)Nc1[nH]c(C)c(C(=O)OCC)c1C`, the “% Inhibition @ 10 uM” value is listed as 1%.

Consider `COc1cc(Br)cc2c1Oc1nc(-c3cccc(OC)c3OC)nc(O)c1C2`, for which the “% Inhibition @ 10 uM” value is listed as 11.2%.

On to `Clc1ccc(-c2nnc(-c3ccc4c(c3)OCO4)o2)c(Cl)c1`, for which the “% Inhibition @ 10 uM” value was found to be 3.95%.

For `COC(=O)C1=CN(Cc2ccc(OC)c(OC)c2)C=C(C(=O)OC)C1c1ccc(C)s1`, the “% Inhibition @ 10 uM” value is given as -6.93%.
